The values that follow are results of earlier work, collected in article PMC7555825, “New Insights of the Zn(II)-Induced P2 × 4R Positive Allosteric Modulation: Role of Head Receptor Domain SS2/SS3, E160 and D170” (International Journal of Molecular Sciences, 2020).

This series addresses T1, rP2 × 4R (Rattus norvegicus, UniProt P51577).
T1 construct: host or cells: Xenopus laevis oocytes (intranuclear plasmid injection, pcDNA3)
T1 sequence (P51577 1-388): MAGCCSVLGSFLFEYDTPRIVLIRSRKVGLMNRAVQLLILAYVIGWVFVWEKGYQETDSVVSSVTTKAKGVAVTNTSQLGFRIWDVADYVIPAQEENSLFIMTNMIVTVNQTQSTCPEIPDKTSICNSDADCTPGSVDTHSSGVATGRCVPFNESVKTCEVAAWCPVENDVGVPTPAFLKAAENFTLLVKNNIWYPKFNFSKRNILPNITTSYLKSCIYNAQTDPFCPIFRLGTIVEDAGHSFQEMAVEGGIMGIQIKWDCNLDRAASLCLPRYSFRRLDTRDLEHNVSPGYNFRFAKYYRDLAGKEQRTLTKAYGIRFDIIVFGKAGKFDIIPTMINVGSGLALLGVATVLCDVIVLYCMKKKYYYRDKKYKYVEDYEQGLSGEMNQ
More on the design: method as in PMID 10737610, PMID 10188989, PMID 10322050, PMID 8622997. As to conditions: P2 × 4R; cited from earlier work.

Consider `[Cl-].[Cl-].[Zn+2]` [Zn(II), zinc chloride (ZnCl2)], for which the “fold leftward displacement of the ATP concentration–response curve by Zn(II)” value was 5 fold.
